Source: the supplement of paper PMC8728848
Some of the results follow.

Experiments:
Assay in all cases: glycan array binding signal (z-score within array); higher = stronger binding
Conditions in all cases: glycan notation: IUPAC condensed, linker removed
Fuc(a1-2)Gal = biological target: Fuc(a1-2)Gal
Method in brief: (§1)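 The binding signal is a Z-score computed within each array and averaged over linkers. Arrays of the same protein sequence at different concentrations or buffers were also averaged together. Data originate from 3228 arrays in the Consortium for Functional Glycomics database, kept only where the protein sequence was available.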

Fuc(a1-2)Gal(b1-3)GalNAc = biological target: Fuc(a1-2)Gal(b1-3)GalNAc
Method in brief: as §1

[1] = biological target: Fuc(a1-2)Gal(b1-3)GalNAc(a1-3)[Fuc(a1-2)]Gal(b1-4)Glc
Method in brief: as §1

[2] = biological target: Fuc(a1-2)Gal(b1-3)GalNAc(a1-3)[Fuc(a1-2)]Gal(b1-4)GlcNAc
Method in brief: as §1

[3] = biological target: Fuc(a1-2)Gal(b1-3)GalNAc(b1-3)Gal
Method in brief: as §1

[4] = biological target: Fuc(a1-2)Gal(b1-3)GalNAc(b1-3)Gal(a1-4)Gal(b1-4)Glc
Method in brief: as §1

[5] = biological target: Fuc(a1-2)Gal(b1-3)GalNAc(b1-4)[Neu5Ac(a2-3)]Gal(b1-4)Glc
Method in brief: as §1

Fuc(a1-2)Gal(b1-3)GlcNAc = biological target: Fuc(a1-2)Gal(b1-3)GlcNAc
Method in brief: as §1

[6] = biological target: Fuc(a1-2)Gal(b1-3)GlcNAc(b1-2)Man(a1-3)[Fuc(a1-2)Gal(b1-3)GlcNAc(b1-2)Man(a1-6)]Man(b1-4)GlcNAc(b1-4)GlcNAc
Method in brief: as §1

[7] = biological target: Fuc(a1-2)Gal(b1-3)GlcNAc(b1-2)Man(a1-3)[Fuc(a1-2)Gal(b1-3)GlcNAc(b1-2)Man(a1-6)]Man(b1-4)GlcNAc(b1-4)[Fuc(a1-6)]GlcNAc
Method in brief: as §1

[8] = biological target: Fuc(a1-2)Gal(b1-3)GlcNAc(b1-3)Gal(b1-4)Glc
Method in brief: as §1

[9] = biological target: Fuc(a1-2)Gal(b1-3)GlcNAc(b1-3)GalNAc
Method in brief: as §1

[10] = biological target: Fuc(a1-2)Gal(b1-3)GlcNAc(b1-3)[Fuc(a1-2)Gal(b1-3)GlcNAc(b1-6)]GalNAc
Method in brief: as §1

[11] = biological target: Fuc(a1-2)Gal(b1-3)GlcNAc(b1-3)[Gal(b1-4)GlcNAc(b1-6)]Gal(b1-4)Glc
Method in brief: as §1

[12] = biological target: Fuc(a1-2)Gal(b1-3)GlcNAc(b1-3)[Neu5Ac(a2-6)Gal(b1-4)GlcNAc(b1-6)]Gal(b1-4)Glc
Method in brief: as §1

[13] = biological target: Fuc(a1-2)Gal(b1-3)GlcNAc6S
Method in brief: as §1

[14] = biological target: Fuc(a1-2)Gal(b1-3)[Fuc(a1-4)]GlcNAc
Method in brief: as §1

[15] = biological target: Fuc(a1-2)Gal(b1-3)[Fuc(a1-4)]GlcNAc(b1-2)Man(a1-3)[Fuc(a1-2)Gal(b1-3)[Fuc(a1-4)]GlcNAc(b1-2)Man(a1-3)]Man(b1-4)GlcNAc(b1-4)GlcNAc
Method in brief: as §1

[16] = biological target: Fuc(a1-2)Gal(b1-3)[Fuc(a1-4)]GlcNAc(b1-2)Man(a1-3)[Fuc(a1-2)Gal(b1-3)[Fuc(a1-4)]GlcNAc(b1-2)Man(a1-6)]Man(b1-4)GlcNAc(b1-4)[Fuc(a1-6)]GlcNAc(b1-4)[Fuc(a1-6)]GlcNAc
Method in brief: as §1

[17] = biological target: Fuc(a1-2)Gal(b1-3)[Fuc(a1-4)]GlcNAc(b1-3)[Fuc(a1-3)[Gal(b1-4)]GlcNAc(b1-6)]Gal(b1-4)Glc
Method in brief: as §1

[18] = biological target: Fuc(a1-2)Gal(b1-3)[Fuc(a1-4)]GlcNAc(b1-3)[Gal(b1-4)GlcNAc(b1-6)]Gal(b1-4)Glc
Method in brief: as §1

[19] = biological target: Fuc(a1-2)Gal(b1-4)Fuc(a1-3)]GlcNAc(b1-2)Man(a1-3)[Fuc(a1-2)Gal(b1-4)[Fuc(a1-3)]GlcNAc(b1-2)Man(a1-6)]Man(b1-4)GlcNAc(b1-4)GlcNAc
Method in brief: as §1

Fuc(a1-2)Gal(b1-4)Glc = biological target: Fuc(a1-2)Gal(b1-4)Glc
Method in brief: as §1

Fuc(a1-2)Gal(b1-4)Glc6S = biological target: Fuc(a1-2)Gal(b1-4)Glc6S
Method in brief: as §1

Fuc(a1-2)Gal(b1-4)GlcNAc = biological target: Fuc(a1-2)Gal(b1-4)GlcNAc
Method in brief: as §1

[20] = biological target: Fuc(a1-2)Gal(b1-4)GlcNAc(b1-2)Man
Method in brief: as §1

[21] = biological target: Fuc(a1-2)Gal(b1-4)GlcNAc(b1-2)Man(a1-3)[Fuc(a1-2)Gal(b1-4)GlcNAc(b1-2)Man(a1-6)]Man(b1-4)GlcNAc(b1-4)GlcNAc
Method in brief: as §1

[22] = biological target: Fuc(a1-2)Gal(b1-4)GlcNAc(b1-2)Man(a1-3)[Fuc(a1-2)Gal(b1-4)GlcNAc(b1-2)Man(a1-6)]Man(b1-4)GlcNAc(b1-4)[Fuc(a1-6)]GlcNAc
Method in brief: as §1

[23] = biological target: Fuc(a1-2)Gal(b1-4)GlcNAc(b1-2)[Fuc(a1-2)Gal(b1-4)GlcNAc(b1-4)]Man(a1-3)[Fuc(a1-2)Gal(b1-4)GlcNAc(b1-2)Man(a1-6)]Man(b1-4)GlcNAc(b1-4)GlcNAc
Method in brief: as §1

[24] = biological target: Fuc(a1-2)Gal(b1-4)GlcNAc(b1-3)Gal(b1-4)GlcNAc
Method in brief: as §1

B1: SSR1 (Sclerotium rolfsii), A0A0M3KL30 (protein)
chain: TYKITVRVYQTNPDAFFHPVEKTVWKYANGGTWTITDDQHVLTMGGSGTSGTLRFHADNGESFTATFGVHNYKRWCDIVTNLAADETGMVINQQYYSQKNREEARERQLSNYQVKNAKGRNFQIVYTEAEGNDLHANLIIG
glycan array binding signal (z-score) (Fuc(a1-2)Gal): -0.318
glycan array binding signal (z-score) (Fuc(a1-2)Gal(b1-3)GalNAc): -0.29
glycan array binding signal (z-score) [1]: -0.333
glycan array binding signal (z-score) [2]: 0.377
glycan array binding signal (z-score) [3]: -0.344
glycan array binding signal (z-score) [4]: -0.335
glycan array binding signal (z-score) [5]: -0.338
glycan array binding signal (z-score) (Fuc(a1-2)Gal(b1-3)GlcNAc): -0.329
glycan array binding signal (z-score) [6]: -0.342
glycan array binding signal (z-score) [7]: -0.315
glycan array binding signal (z-score) [8]: -0.337
glycan array binding signal (z-score) [9]: -0.35
glycan array binding signal (z-score) [10]: -0.302
glycan array binding signal (z-score) [11]: -0.321
glycan array binding signal (z-score) [12]: -0.342
glycan array binding signal (z-score) [13]: -0.339
glycan array binding signal (z-score) [14]: -0.348
glycan array binding signal (z-score) [15]: -0.329
glycan array binding signal (z-score) [16]: -0.331
glycan array binding signal (z-score) [17]: -0.333
glycan array binding signal (z-score) [18]: -0.35
glycan array binding signal (z-score) [19]: -0.281
glycan array binding signal (z-score) (Fuc(a1-2)Gal(b1-4)Glc): -0.315
glycan array binding signal (z-score) (Fuc(a1-2)Gal(b1-4)Glc6S): -0.345
glycan array binding signal (z-score) (Fuc(a1-2)Gal(b1-4)GlcNAc): -0.343
glycan array binding signal (z-score) [20]: -0.348
glycan array binding signal (z-score) [21]: -0.303
glycan array binding signal (z-score) [22]: -0.335
glycan array binding signal (z-score) [23]: -0.332
glycan array binding signal (z-score) [24]: -0.335
